Results as given in patent publication US20220403048A1, “BINDING MOLECULES TO ARGINASE II [ARG2]” (Cancer Research Technology Limited, priority 2019, published 2022).

Columns and labels:
[1] = target: T1, THP-1 lysate derived human trimeric ARG2 (Homo sapiens, UniProt P78540); assay: ELISA binding to THP-1 lysate derived human ARG2; settings: biotinylated recombinant human IgG1, FIG. 6
T1 construct: expressed in transfected cells; host or cells: THP-1 cells overexpressing human ARG2 (cell lysate)
T1 sequence (P78540 23-354): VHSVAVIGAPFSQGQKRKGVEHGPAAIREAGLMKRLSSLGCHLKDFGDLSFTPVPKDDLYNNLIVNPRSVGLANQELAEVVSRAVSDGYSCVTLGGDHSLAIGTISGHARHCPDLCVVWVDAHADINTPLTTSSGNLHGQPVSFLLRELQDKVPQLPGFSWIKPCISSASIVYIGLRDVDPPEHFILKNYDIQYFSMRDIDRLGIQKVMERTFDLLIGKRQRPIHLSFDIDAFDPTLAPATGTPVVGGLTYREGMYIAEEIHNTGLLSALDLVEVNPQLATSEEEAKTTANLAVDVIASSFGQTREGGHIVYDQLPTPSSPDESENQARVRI
Method: C0020187 and C0020065 IgGs were tested for their ability to bind to mammalian expressed human ARG2 produced in transfected THP-1 cells. Lysates of human ARG2 transfected THP-1 cells were prepared and binding to these lysates measured using an ELISA.
Cell lysates were prepared from THP-1 cells overexpressing human ARG2 and from wild type THP-1 cells. Between 600,000-1,000,000 cells were suspended in 1 ml tris-buffered saline (25 mM tris+150 mM sodium chloride in dH2O, pH 7.4) and cell lysates prepared using QIAshredders (QIAgen, UK; cat: 79654).
For the ELISA, maxisorp white plates (Nunc; cat: 437796) were coated overnight at 4° C. with rabbit anti-human ARG2 antibody (Abcam, ab137069) at 1 μg/ml in PBS. The next day, the plate was washed with PBS and blocked with casein blocker (Thermo Scientific, 37528). […]
The blocked ELISA plate was washed with PBS and 50 μl of the pre-incubation mixtures were transferred to the ELISA plate and incubated for 90 minutes at room temperature. […] Next, 100 μl PICO ELISA substrate (Thermo Scientific, 37070) was added to each well, the plate was incubated for 1 minute at room temperature in the dark before being read for luminescence using the Envision plate reader. Data were analysed using GraphPad Prism. […]

[2] = target: T2, recombinant human trimeric ARG1 enzyme (Homo sapiens, UniProt P05089); assay: Direct binding HTRF assay, human trimeric ARG1; settings: purified scFv, FIG. 1B
T2 construct: Avi tag (N); His10 (after a GGG linker) (C); made in house; host or cells: E. coli BL21 (DE3)
T2 sequence (P05089 with tags, fused parts or gaps): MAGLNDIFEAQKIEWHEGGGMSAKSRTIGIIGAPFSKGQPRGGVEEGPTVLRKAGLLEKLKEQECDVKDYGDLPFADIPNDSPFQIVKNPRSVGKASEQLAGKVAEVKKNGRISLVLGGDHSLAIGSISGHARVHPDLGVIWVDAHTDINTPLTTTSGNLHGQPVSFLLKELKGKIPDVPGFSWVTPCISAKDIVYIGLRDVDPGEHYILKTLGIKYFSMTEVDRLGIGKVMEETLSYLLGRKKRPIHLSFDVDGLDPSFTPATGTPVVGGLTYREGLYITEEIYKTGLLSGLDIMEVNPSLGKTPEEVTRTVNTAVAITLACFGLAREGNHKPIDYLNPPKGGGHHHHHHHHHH

B1: C0020187: anti-ARG2 antibody, parent lead isolation clone, VH SEQ ID NO: 12, VL SEQ ID NO: 17 (antibody, listed as Homo sapiens, V domains shown)
VH: [about 100 residues not given here]LRADLGLYMDLWGRGTLVTVSS
VL: QSVLTQPPSVSAAPGQKVTISCSGSSSNIGNHYVSWYQQLPGTAPKLLIYDNSERPSGIPDRFSGSKSGTSATLGITGLQTGDEADYYCGTWDSSLSALVFGGGTKLTVL
modifications: C0020187
binding to THP-1 lysate derived human trimeric ARG2 [1]: strong binding
binding to biotinylated recombinant human trimeric ARG1 enzyme [2]: no binding
